B1: LINE1-full (parent)
chain: UACGUAGGUGGUUUUCCCCUGAUAGUGCUAAGGGGGCCUGGAAGUUUGGACUGGGCAGAGCUCAACACAGCGUGGCAAAGUGGCUGUGGCUAGACUGCCUCUCUGGAUUCCUCGUCACUCAGCAGGGCAUCUCUGAGAGAAAUGCC

The source gives no read counts; variants with many changes may rest on few reads.

Variants of B1 are the subject of the series. The series can be described thus: self-cleavage, relative activity (ratio to wild type); higher = more cleavage; in vitro, sequencing; the parent is a self-cleaving ribozyme.
With UACGUAGGUGGUUUUCCCCUGAUAGUGCUAAGGGGGCCUGGAAGUUUGGACUGGGCAGAGCUCAACGCAGCGUGGCAAAGUGGCUGUGGCUAGACUGCCUCUCUGGAUUCCUCAUCACUCAGCGGGGCAUCUCUGAGAGAAGUGCC [A67G G114A A124G A142G], the self-cleavage worked out at 0.36. UACGUAGGUGGUUUUCCCCUGAUAGUGCUAAGGGGGCCUGGAAGUUUGGACUGGGCAGAGCUCAACUCAGCGUGGCAAAGUGGCUGUGGCUAGACUGCCUCUCUGGAUUCCUCGUCACUCAGCAGGGCACCUCUGAGGGAAAUGCC [A67U U130C A138G]: the self-cleavage was determined as 0.3. In the case of UACGUAGGUGGUUUUCCCCUGAUAGUGCUAAGGGGGCCUGGAAGUUUGGACUGGGCAGAGCUCAACGCAGCGUGGCAAAGUGGCCGUGGCUAGACUGCCUCUCUGGAUUCCUCGUCACCCAGCAGGGCAUCUCUGAGAGGAAUGCC [A67G U85C U119C A140G], the self-cleavage amounted to 0. Next, UACGUAGGUGGUUUUCCCCUGAUAGUGCUAAGGGGGCCUGGAAGUUUGGACUGGGCAGAGCUCAACGCAGCGUGGCAAAGUGGCUGUGGCUAGACUGCCUCUCUGGAUUCCUCGUCACUCAGCAGGGCAACUCUGAGAGAGAUGCC [A67G U130A A141G]: 0.31.

UACGUAGGUGGUUUUCCCCUGAUAGUGCUAAGGGGGCCUGGAAGUUUGGACUGGGCAGAGCUCAACUCAGCGUGGCAAAGUGACCGUGGCUAGACUGCCUCUCUGGAUUCCUCGUCACUCAGCAGGGCAUCUCUGGGAGAAAUGCC [A67U G83A U85C A136G]: the self-cleavage was 0.02. Next, UACGUAGGUGGUUUUCCCCUGAUAGUGCUAAGGGGGCCUGGAAGUUUGGACUGGGCAGAGCUCAACUCAGCGCGGCAAAGUGGCUGUGGCUAGACUGCCUCUCUGGAUUCCUCGUCACUCAGCAGGGCAUCUCUGGGAGAUAUGCC [A67U U73C A136G A141U]: 0.12; UACGUAGGUGGUUUUCCCCUGAUAGUGCUAAGGGGGCCUGGAAGUUUGGACUGGGCAGAGCUCAACUCAGCGUGGCAAAGUGGCUGUGGCUAGACUGCCUUUCUGGAUUCCUCGACACUCAGCGGGGCAUCUCUGAGAGAAAUGCC [A67U C101U U115A A124G]: 0.12. Turning to UACGUAGGUGGUUUUCCCCUGAUAGUGCUAAGGGGGCCUGGAAGUUUGGACUGGGCAGAGCUCAACUCAGCGUGGCAAAGUGGCUGUGGCUAGACUGCCUCUCUGGAUUCCUCGCCACUCAGCAGGGCAUCUCCGAGAGAAAUGCC [A67U U115C U134C], the self-cleavage was 0.26. The value for UACGUAGGUGGUUUUCCCCUGAUAGUGCUAAGGGGGCCUGGAAGUUUGGACUGGGCAGAGCUCAACUCAGCGUGGCAAAGUGGCUGUGGCUAGUCUGCCUCUCUGGAUUCCUCGUCACUCAGCAGGGCAUCUCUAAGAGAAAUGCC [A67U A94U G135A] was 0.06; that for UACGUAGGUGGUUUUCCCCUGAUAGUGCUAAGGGGGCCUGGAAGUUUGGACUGGGCAGAGCUCAACUCAGCGUGGCAAAGUGGCUGUGGCUAGACUGCCUCUCUGGAUUCCUCGUCACUCGGCAGGGCGUCUCUGAGAGAAAUGCC [A67U A121G A129G] was 0.1. The value for UACGUAGGUGGUUUUCCCCUGAUAGUGCUAAGGGGGCCUGGAAGUUUGGACUGGGCAGAGCUCAACGCAGCGUGGCAAAGUGGCUGUGGCUAGACUGCCUCUCUGGAUUCCUCGUCACACAGCAGGGCAUCCCCGAGAGAAAUGCC [A67G U119A U132C U134C] was 0.7.

As for UACGUAGGUGGUUUUCCCCUGAUAGUGCUAAGGGGGCCUGGAAGUUUGGACUGGGCAGAGCUCAACAUUGCGUGGCAAAGUGGCUGUGGCUAGACUGCCUCUCUGGAUUCCUCGUCACUCAGCAGGGCACCUCUGAGAGAAAUGCC [C68U A69U U130C], the self-cleavage is 0.06. The value for UACGUAGGUGGUUUUCCCCUGAUAGUGCUAAGGGGGCCUGGAAGUUUGGACUGGGCAGAGCUCAACGCAGCGUGGCAAAGUGGCUGUGGCUAGACUGCCUCUCUGGAUUCCUCGUCACUCAGCAGGGCAUCACUGAGAAAAAUGCC [A67G U132A G139A] was 0.5. In the case of UACGUAGGUGGUUUUCCCCUGAUAGUGCUAAGGGGGCCUGGAAGUUUGGACUGGGCAGAGCUCAACUCAGCGUGGCAAAGUGGCUGUGGCUAGACUGCCUCUCUGGACUCCUCGUCACUCAGCAGGGCAUCUCUGAGAGAAGUGCC [A67U U108C A142G], the self-cleavage is 0.13.

Regarding UACGUAGGUGGUUUUCCCCUGAUAGUGCUAAGGGGGCCUGGAAGUUUGGACUGGGCAGAGCUCAACUCAGCGUGGCAAAGUGGCUGUGGCUAGACUGCCUCUCUGGAUUCCUCGUCACUCAGCAGGGCGUCUCUGAGAGAAACGCC [A67U A129G U143C], the self-cleavage worked out at 0.22.

On to UACGUAGGUGGUUUUCCCCUGAUAGUGCUAAGGGGGCCUGGAAGUUUGGACUGGGCAGAGCUCAACUCAGCGUGGCAGAGUGGCUGUGGCUAGACUGCCUCUCCGGAUUCCUCGUCACUCAGCAGGGCAUCUCUGAGAGAAAUGCC [A67U A78G U104C], for which the self-cleavage is 0.04. Next, UACGUAGGUGGUUUUCCCCUGAUAGUGCUAAGGGGGCCUGGAAGUUUGGACUGGGCAGAGCUCAACUCAGCGUGGCCAAGUGGCUGUGGCUAGACUGCCUCUCUGGACUCCUCGUCACUCAGCGGGGCGUCUCUGAGUGAAAUGCC [A67U A77C U108C A124G A129G A138U]: 0; UACGUAGGUGGUUUUCCCCUGAUAGUGCUAAGGGGGCCUGGAAGUUUGGACUGGGCAGAGCUCAACUCAGCGUGGCGAAGUGGCUGUGGCUAGACUGCCUCUCUGGAUUCCUCGCCACUCAGCAGGGCAUCUCUGAGAGAAAUGCC [A67U A77G U115C]: 0. As to UACGUAGGUGGUUUUCCCCUGAUAGUGCUAAGGGGGCCUGGAAGUUUGGACUGGGCAGAGCUCAACAUAGCGUGGCGAAGUGGCUGUGGCUAGACUGCCUCUCUGGAUUCCUCGUCACUCAGCAGGGCAUCUCUGAGAGGAAUGCC [C68U A77G A140G], the self-cleavage turned out to be 0.19. The value for UACGUAGGUGGUUUUCCCCUGAUAGUGCUAAGGGGGCCUGGAAGUUUGGACUGGGCAGAGCUCAACAUAGCGUGGCUAAGUGGCCGUGGCUAGACUGCCUCUCUGGAUUCCUCGUCACUCAGCAGGGCAACUCUGAGAGAAAUGCC [C68U A77U U85C U130A] was 0.05; that for UACGUAGGUGGUUUUCCCCUGAUAGUGCUAAGGGGGCCUGGAAGUUUGGACUGGGCAGAGCUCAACUCAGCGUGGCAAAGUGGCUGUGGCUAGACUGCCUCUCUGGAUUCCUCGUCACACAGCAGGGCAUCUCUGAGAGAAAAGCC [A67U U119A U143A] was 0.06. Next, UACGUAGGUGGUUUUCCCCUGAUAGUGCUAAGGGGGCCUGGAAGUUUGGACUGGGCAGAGCUCAACUCAGCGUGGCGAAGUGGCUGUGGCUAGACAGCCUCUCUGGAUUCCUCGUCACUCAGCAGGGCAUCUCUGAGAGAACUGCC [A67U A77G U96A A142C]: 0. The value for UACGUAGGUGGUUUUCCCCUGAUAGUGCUAAGGGGGCCUGGAAGUUUGGACUGGGCAGAGCUCAACUCAGCGUGGCAAAGUGGCUGUGGCUAGACUGCCUCUCUGGAUUCCUCGUCACUCAACUGGGCAUCUCUGAGAGAAAUGCC [A67U G122A A124U] was 0.1; that for UACGUAGGUGGUUUUCCCCUGAUAGUGCUAAGGGGGCCUGGAAGUUUGGACUGGGCAGAGCUCAACGCAGCGUGGCAAAGAGGCUGUGGCUAGACUGCCUCUCUGGAUUCCUCGUCACUCAGCAGGGCAUCCCUGAGAGAAGUGCC [A67G U81A U132C A142G] was 0.82; that for UACGUAGGUGGUUUUCCCCUGAUAGUGCUAAGGGGGCCUGGAAGUUUGGACUGGGCAGAGCUCAACUCAGCGUGGCAAAGUGGCUGUGGCUAGGCUGCCUCUCUGGAUUCCUCGGCACUCAGCAGGGCAUCUCUGAGAGGAAUGCC [A67U A94G U115G A140G] was 0.34. Turning to UACGUAGGUGGUUUUCCCCUGAUAGUGCUAAGGGGGCCUGGAAGUUUGGACUGGGCAGAGCUCAACUCAGCGUGGCAAAGUGGCCGUGGCUAGACUGCCUCUCUGGAUUCCACGUCACUCAGCAGGGCAUCUCUGAGAGAAAUGCC [A67U U85C U112A], the self-cleavage came to 0.08. Take UACGUAGGUGGUUUUCCCCUGAUAGUGCUAAGGGGGCCUGGAAGUUUGGACUGGGCAGAGCUCAACGCAGCGUGGCAAAGUGGCUGUGGCUAGACUGCCACUCUGGAUUCCUCGUCACUCAGCAGGGCAUCUCUGAGAGAAUCGCC [A67G U100A A142U U143C]: the self-cleavage was 0.45. The value for UACGUAGGUGGUUUUCCCCUGAUAGUGCUAAGGGGGCCUGGAAGUUUGGACUGGGCAGAGCUCAACGCAGCGUGGCAAAGUGGCUGUGGCUAGACUGCCUCUCUGGAUUCCUCGUCACUCAGCAGGGCAUCACUGAGAGAACUGCC [A67G U132A A142C] was 0; that for UACGUAGGUGGUUUUCCCCUGAUAGUGCUAAGGGGGCCUGGAAGUUUGGACUGGGCAGAGCUCAACGCAGCGUGGCAAAGUGGCUGUGGCUAGACUGCCUCUCUGGAUUCCUCGCCACUCAGCAGAGCAUCUCUGAGAGAAAUGCC [A67G U115C G126A] was 0.81; that for UACGUAGGUGGUUUUCCCCUGAUAGUGCUAAGGGGGCCUGGAAGUUUGGACUGGGCAGAGCUCAACGCAGCGUGGCAAAGUGGCUGUGGCUAGACUGCCUCUCUGGAUUCCCCGUCACUCAGCAGGGCAUCUCAGAGAGAAAUGCC [A67G U112C U134A] was 0.

For UACGUAGGUGGUUUUCCCCUGAUAGUGCUAAGGGGGCCUGGAAGUUUGGACUGGGCAGAGCUCAACUCAGCGUGGCAAAGUGGCUGUGGCUAGACUGCCUCUCUGGAUUCCUCGUCACUCAGCAGGGCAUCCCUGGGAGAAAUGCC [A67U U132C A136G], the self-cleavage worked out at 0.44. Turning to UACGUAGGUGGUUUUCCCCUGAUAGUGCUAAGGGGGCCUGGAAGUUUGGACUGGGCAGAGCUCAACGCAGCGUGGCAAAGUGGCUGUGGCUAGACUGCCUCUCUGGACUCCUCGUCACUCAGCAGGGCACCUCUGAGAGAAAUGCC [A67G U108C U130C], the self-cleavage is 0.51. The value for UACGUAGGUGGUUUUCCCCUGAUAGUGCUAAGGGGGCCUGGAAGUUUGGACUGGGCAGAGCUCAACGCAGCGUGGCAAAGCGGCUGUGGCUAGACUGCCUCUCUGGAUUCCUCGUCACUCAGCAGGGCAUCUUUGAGAGAAGUGCC [A67G U81C C133U A142G] was 0.46. For the variant UACGUAGGUGGUUUUCCCCUGAUAGUGCUAAGGGGGCCUGGAAGUUUGGACUGGGCAGAGCUCAACGCAGCGUGGCAAAGUGGCUGUGGCUAGACUGCCUCUCUGGAUUCCUCGCCACUCAGCAGGGCAUCUCUGAGAGGAAUGCC [A67G U115C A140G], the self-cleavage was 0.48. Next, UACGUAGGUGGUUUUCCCCUGAUAGUGCUAAGGGGGCCUGGAAGUUUGGACUGGGCAGAGCUCAACUCAGCGUGGCGAAGUGGCUGUGGCUAGACUGCCGCUCUGGAUUCCUCGUCACUCAGCUGGGCAUCUCUGAGAGAAAUGCC [A67U A77G U100G A124U]: 0; UACGUAGGUGGUUUUCCCCUGAUAGUGCUAAGGGGGCCUGGAAGUUUGGACUGGGCAGAGCUCAACUCAGCGUGGCAAAGUGGCUGUGGCUAGACUGACUCUCUGGAUUCCUCGUCGCUCAGCAGGGCAUCUCUGAGAGAAAUGCC [A67U C98A A117G]: 0.04.

As for UACGUAGGUGGUUUUCCCCUGAUAGUGCUAAGGGGGCCUGGAAGUUUGGACUGGGCAGAGCUCAACUCAGCGUGGCAAAGUGGCUGUGGCUAGACUGCCUCUCUGGAUCCCUCGUCACUCAGCAGGGCAUCUCUGAGAGAAGUGCC [A67U U109C A142G], the self-cleavage was determined as 0.03. The value for UACGUAGGUGGUUUUCCCCUGAUAGUGCUAAGGGGGCCUGGAAGUUUGGACUGGGCAGAGCUCAACUCAGCGUGGCAAGGUGGCUGUGGCUAGACUGCCUCCCUGGAUUCCUCGUCACACAGCAGGGCAUCUCUGAGAGAAAUGCC [A67U A79G U102C U119A] was 0.12; that for UACGUAGGUGGUUUUCCCCUGAUAGUGCUAAGGGGGCCUGGAAGUUUGGACUGGGCAGAGCUCAACUCAGCGUGGCGAAGUGGCUGUGGCUAGACUGCCUCUCUGGAUUCCUCGUCACUCAGCAGGGCAUCUCUGAGAGAGAUGCC [A67U A77G A141G] was 0.29.

The values are drawn from the RNAGym collection of RNA variant scans (doi:10.7554/elife.90254).
